Consider 14 molecules from paper PMC12136788.

Some of the results follow.

First the molecules themselves.
B1: chr19:48404743:48404844:+|CDS|ENSG00000105464|unk|total|mutant (ssRNA)
RNA: GGGAGUUCUACAGUCCGACGAUCCGAGCAACAGCUUCAGGUCAUCUUUGAGGUGCUGGAGGAGUAUGACUGGACGUCCUUUGCCGCCGUGACCACUCGUGCCCCUGGCCACCGGGCCUUCCUGUCCUACAUUGAGGUGCUGACCAACAGAGGAUUGAGCAUCA
B2: chr16:57472207:57472321:-|3pUTR|ENSG00000125170|unk|FALSE|unique (ssRNA)
RNA: GGGAGUUCUACAGUCCGACGAUCUCAAACUUUUGGUUGUGUGGGGUUUUUUGUUGUUUUUUGGGUUUUGUUUUUUAAUACUUUAGGGUCCUGAUUUGUGGGAACAGACCUUCUUGUAAAUAACCACUAUUUGAGUUGUGGCAGCAACAGAGGAUUGAGCAUCA
B3: chr2:205796339:205796442:+|3pUTR|ENSG00000118257|msi1|FALSE|unique (ssRNA)
RNA: GGGAGUUCUACAGUCCGACGAUCAAGUCCGCAAGUACUGUGGACAAGAAUGCUUAACCAUGCUGCUUCAGCCUUGAGAGACCUAGGUUCUUACACAUAUGCACACACGCAUACACACAUGCACGCACACACACAUACACACAUCAACAGAGGAUUGAGCAUCA
B4: chr10:95311796:95311897:-|3pUTR|ENSG00000095637|unk|total|mutant (ssRNA)
RNA: GGGAGUUCUACAGUCCGACGAUCCAGACACCGAUUUUUCUGUUCAUUUAUUUUUCUUCAUUGCAGUGGAUUGAUUUGAUAAACCGAUGUGUUGAAUUACUACAUUUGCUGUACAUAUUAUUUAAUAAACUUUAUUCAGAAUUGCAACAGAGGAUUGAGCAUCA
B5: ENSG00000070961:be:win_5751|3pUTR|ENSG00000070961|bound_else_gene|NA|bound_elsewhere_windowed (ssRNA)
RNA: GGGAGUUCUACAGUCCGACGAUCCUAAAAAUUGACCCUAUCAACUGGAGAGCCCACAAGGCAUAGGGAAUAGAGAAAAGGGAAAUGUUUUCAGUUUUCUUUUUUAUUUUGGUUAUGCUUAAAUAUGAAUGUAAUUACCAAAAGCAACAGAGGAUUGAGCAUCA
B6: chr9:26904889:26904990:-|3pUTR|ENSG00000137055|msi1|FALSE|bound_elsewhere (ssRNA)
RNA: GGGAGUUCUACAGUCCGACGAUCAUAAUUUCUUGAUUUGUCAUUUAUAAAUCCUAAAGUAUAUUUGUUUAAUGGCCUAUUUUUAGAUGAAGAAAAAGCCAGUUGGUAAGCUGUGUUAGUCAUGUAUCAGUUCAGACAGACGAGCAACAGAGGAUUGAGCAUCA
B7: chr22:38111494:38112305:-|three_prime_utr|ENSG00000184381|control|control|control (ssRNA)
RNA: GGGAGUUCUACAGUCCGACGAUCAGGCCAAGCCCAGCCACUGCCCUCCCGGGCAGAUCUGGGCCCAGGCACCUCUGAGUCCAUAGACCAGGCCUGGGAGAAUGCCAAGCUGCCUGCCCGAGGCUGGUCCUGAAGGCCUGUCUCCAACAGAGGAUUGAGCAUCA
B8: chr11:2944997:2945113:-|3pUTR|ENSG00000205531|unk|total|mutant (ssRNA)
RNA: GGGAGUUCUACAGUCCGACGAUCCUGUGCCGAGCCGGGCCCUGUUCUCCUCCGGAUGUUGCUUCUUGAUUUUUUUUUUUUUUCCGGGGUGGGUCAGGGUUGUGACACACCAGCCCAGGUGAGAGCUGCUGCGGGUCACCUCAUCAACAGAGGAUUGAGCAUCA
B9: chr2:46903092:46903222:-|3pUTR|ENSG00000180398|msi1|total|mutant (ssRNA)
RNA: GGGAGUUCUACAGUCCGACGAUCAAGCAGAAACCCCUGAUAAACUGAUCAGAUCUCAUGAGACUUAUUCACUGUCACGAGAACCGCACGGGAAAGACUGGCCCCCAUGAUUCAAUUACCUCCCCCUGGGUCUGUCCCACAACACAACAGAGGAUUGAGCAUCA
B10: chr17:77216858:77216994:+|3pUTR|ENSG00000129657|unk|FALSE|bound_elsewhere (ssRNA)
RNA: GGGAGUUCUACAGUCCGACGAUCUGUUUCUACCUUUAGUACCUUGCCACUCUUUUAAAACGCUGCUGUCAUUUCCCAUUUCUUAGUACUAAUGAUUCUUUGAUUCUCCCUCUAUUAUGUCUUAAUUCACUUUCCUUCCUAAAUCAACAGAGGAUUGAGCAUCA
B11: chr3:149084675:149084859:-|CDS|ENSG00000071794|unk|total|mutant (ssRNA)
RNA: GGGAGUUCUACAGUCCGACGAUCCCAACUUUCUUUCCACGUUUUGAAUUCCAAGAUGUUAUCCCUCCAGAUGACUUUCUAACCCGUGAUGAAGAAGCCGAUUCCGUUUUAUUUGGAAGUUUGAGAGGUCAUGUGGUUGGACUACAACAGAGGAUUGAGCAUCA
B12: chr10:60791946:60792061:+|CDS|ENSG00000170312|unk|FALSE|unique (ssRNA)
RNA: GGGAGUUCUACAGUCCGACGAUCGUCAGCUCGUUACUCAACUCCAGUUGACAUUUGGAGUAUAGGCACCAUAUUUGCUGAACUAGCAACUAAGAAACCACUUUUCCAUGGGGAUUCAGAAAUUGAUCAACUCUUCAGGAUUUUCAACAGAGGAUUGAGCAUCA
B13: chr13:52036708:52036809:-|3pUTR|ENSG00000197168|unk|FALSE|unique (ssRNA)
RNA: GGGAGUUCUACAGUCCGACGAUCGUAGAACUUUUGAAUAUAGCCAUUAAUAUUUUUACUUUAAAGUUUCUAUUAAGAAAUCUUAGGCCGGGCAGUCUCAUCACUUUGGGAGGCCAAGGCAGGCAGAUCAUGAGGUCAGGAGUUCAACAGAGGAUUGAGCAUCA
B14: chr6:35118271:35118501:-|CDS|ENSG00000124678|control|control|control (ssRNA)
RNA: GGGAGUUCUACAGUCCGACGAUCUCAGCGGAUCCAUUUGUUUCUCAAAUGCUGUUUGGUUCUUGGUGUGCAGCGGUCUCUAUUAGACCUUCCUGGAGGCCUUACUCUCAUUGAAGCAGAACUGGCAGAACUGGGCCAAAAGUUCAACAGAGGAUUGAGCAUCA

The experiment deals with MSI1 full-length (mouse, UniProt Q61474 1-362). Briefly: nsRBNS (natural sequence RNA bind-n-seq); RBNS binding buffer (assumed for nsRBNS): 25 mM Tris pH 7.5, 150 mM KCl, 3 mM MgCl2, 0.01% Triton X-100, 500 ug/ml BSA, 20 U/ml SUPERase-In, 4 C; UNK is unkempt and MSI1 is Musashi-1; names of the RNAs are library labels; protein concentration not given here; high values mean tight binding.
UniProt Q61474, sequence (Q61474 whole entry): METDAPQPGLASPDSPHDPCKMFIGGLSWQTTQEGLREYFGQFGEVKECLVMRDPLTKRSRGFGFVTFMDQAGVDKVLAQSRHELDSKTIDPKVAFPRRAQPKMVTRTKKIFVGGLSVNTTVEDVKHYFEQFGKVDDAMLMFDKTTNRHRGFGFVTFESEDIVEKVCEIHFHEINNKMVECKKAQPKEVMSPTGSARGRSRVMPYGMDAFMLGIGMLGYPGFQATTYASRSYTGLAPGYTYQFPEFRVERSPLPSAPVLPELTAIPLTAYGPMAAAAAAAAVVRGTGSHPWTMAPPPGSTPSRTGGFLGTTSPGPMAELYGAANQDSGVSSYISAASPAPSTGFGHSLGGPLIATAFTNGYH
As for B1, the binding signal was 0.272 enrichment R.
Consider B2, for which the binding signal is 0.886 enrichment R.
In turn, B3 had a binding signal of 0.627 enrichment R.
In the case of B4, the binding signal came to 1.5 enrichment R.
B5 displayed a binding signal of 0.329 enrichment R.
Consider B6, for which the binding signal was determined as 6.82 enrichment R.
As for B7, the figure is 0.624 enrichment R.
B8: the binding signal was 0.872 enrichment R.
Take B9: the binding signal stood at 0.532 enrichment R.
The molecule B10 displayed a binding signal of 6.66 enrichment R.
With B11, the binding signal amounted to 0.369 enrichment R.
B12 came in with a binding signal of 0.331 enrichment R.
With B13, the binding signal was determined as 8.92 enrichment R.
B14 returned a binding signal of 0.403 enrichment R.
